In the supplement of paper PMC8285479:
Counter-ions that a name gives are not always drawn. ± gives the standard deviation of the averaged measurements. Over roughly 1,900 compounds, “normalised cell viability (NPI; 0 = phenylarsine oxide control, 1 = DMSO control)” has its median near 1; the lowest 2% begin near 0.039. The list shows a part of the results.

Tested on: NCI-H1944
Experiment: normalised cell viability (NPI; 0 = phenylarsine oxide control, 1 = DMSO control) (fraction of DMSO control); NCI-H1944 is a non-small cell lung cancer line; higher = more viable cells (less compound toxicity)
Conditions: 6 days
[1] = glucocorticoid arm: hydrocortisone 2.75 uM co-treatment, compound 1 µM
[2] = glucocorticoid arm: hydrocortisone 2.75 uM co-treatment, compound 5 µM
[3] = glucocorticoid arm: hydrocortisone 2.75 uM pre-treated 2 days and continued, compound 1 µM
[4] = glucocorticoid arm: hydrocortisone 2.75 uM pre-treated 2 days and continued, compound 5 µM
[5] = glucocorticoid arm: vehicle, compound 1 µM
[6] = glucocorticoid arm: vehicle, compound 5 µM
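Also: CTB read-out in 384-well plates, mean of triplicate wells, normalised per plate against 1 µM phenylarsine oxide and 0.1% DMSO, compounds added 24 h after seeding.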

C[C@H]1O[C@@H](n2cc(F)c(=O)[nH]c2=O)[C@H](O)[C@@H]1O [5-fluoro-5'-deoxyuridine]
normalised cell viability [1]: 0.9947 ± 0.0092 | normalised cell viability [2]: 0.719 ± 0.019 | normalised cell viability [3]: 0.988 ± 0.013 | normalised cell viability [4]: 0.998 ± 0.02 | normalised cell viability [5]: 0.9893 ± 0.0065 | normalised cell viability [6]: 0.728 ± 0.017

CC(C)(C)c1nc(-c2cccc(NS(=O)(=O)c3c(F)cccc3F)c2F)c(-c2ccnc(N)n2)s1 [Dabrafenib Mesylate]
normalised cell viability [1]: 1.09 | normalised cell viability [2]: 0.629 ± 0.036 | normalised cell viability [3]: 1.073 ± 0.0058 | normalised cell viability [4]: 0.983 ± 0.018 | normalised cell viability [5]: 0.97 ± 0.0087 | normalised cell viability [6]: 0.157 ± 0.0076

CC(C)(C)c1nc(-c2cccc(NS(=O)(=O)c3c(F)cccc3F)c2F)c(-c2ccnc(N)n2)s1
normalised cell viability [1]: 1.09 ± 0.011 | normalised cell viability [2]: 1.1 ± 0.035 | normalised cell viability [3]: 1.09 ± 0.01 | normalised cell viability [4]: 1.1 ± 0.023 | normalised cell viability [5]: 1.017 ± 0.0058 | normalised cell viability [6]: 0.9963 ± 0.0063

Clc1ccc(C(c2ccc(Cl)cc2)[n+]2ccn(CC(OCc3ccc(Cl)cc3Cl)c3ccc(Cl)cc3Cl)c2)cc1 (stereo not drawn) [Calmidazolium chloride]
normalised cell viability [1]: 0.974 ± 0.035 | normalised cell viability [2]: 0.00138 ± 0.00076 | normalised cell viability [3]: 0.993 ± 0.012 | normalised cell viability [4]: -0.000224 ± 0.0015 | normalised cell viability [5]: 1.002 ± 0.0072 | normalised cell viability [6]: 0.00119 ± 0.00017

COC(=O)c1c(-c2cc(OC)c(OC)c(OC)c2)c2ccc(OCc3ccccn3)cc2c(=O)n1-c1ccc(N)cc1
normalised cell viability [1]: 1.01 ± 0.01 | normalised cell viability [2]: 1.04 ± 0.015 | normalised cell viability [3]: 1.02 ± 0.015 | normalised cell viability [4]: 1.027 ± 0.0058 | normalised cell viability [5]: 1.027 ± 0.0058 | normalised cell viability [6]: 1.017 ± 0.0058

CS(=O)(=O)c1ccc(-c2cnc(N)c(C(=O)Nc3ccccc3)n2)cc1
normalised cell viability [1]: 1.02 ± 0.017 | normalised cell viability [2]: 1.03 ± 0.026 | normalised cell viability [3]: 0.9917 ± 0.006 | normalised cell viability [4]: 1.01 ± 0.03 | normalised cell viability [5]: 0.99 ± 0.044 | normalised cell viability [6]: 0.965 ± 0.0098

Cc1cc(Cl)ccc1OCCCC(=O)NO [Droxinostat]
normalised cell viability [1]: 0.983 ± 0.015 | normalised cell viability [2]: 0.976 ± 0.02 | normalised cell viability [3]: 0.97 ± 0.011 | normalised cell viability [4]: 0.9983 ± 0.0029 | normalised cell viability [5]: 0.986 ± 0.013 | normalised cell viability [6]: 0.981 ± 0.0062

CN(C)CCOc1ccc(-c2nc(-c3ccncc3)c(-c3ccc4c(c3)CC/C4=N\O)[nH]2)cc1
normalised cell viability [1]: 1.103 ± 0.0058 | normalised cell viability [2]: 1.16 ± 0.032 | normalised cell viability [3]: 1.07 ± 0.011 | normalised cell viability [4]: 1.11 ± 0.021 | normalised cell viability [5]: 1.013 ± 0.0058 | normalised cell viability [6]: 1 ± 0.05

C[C@H](Cc1cc2c(c(C(N)=O)c1)N(CCCO)CC2)NCCOc1ccccc1OCC(F)(F)F [Silodosin]
normalised cell viability [1]: 1.01 ± 0.011 | normalised cell viability [2]: 1.01 ± 0.022 | normalised cell viability [3]: 1.01 ± 0.011 | normalised cell viability [4]: 1.01 ± 0.026 | normalised cell viability [5]: 1.003 ± 0.0061 | normalised cell viability [6]: 0.9977 ± 0.004

CNCCCC12CCC(c3ccccc31)c1ccccc12 [Maprotiline HCl]
normalised cell viability [1]: 1.01 ± 0.016 | normalised cell viability [2]: 0.987 ± 0.016 | normalised cell viability [3]: 1.02 ± 0.015 | normalised cell viability [4]: 0.99 ± 0.026 | normalised cell viability [5]: 1.002 ± 0.0076 | normalised cell viability [6]: 0.968 ± 0.01

CNCCCC12CCC(c3ccccc31)c1ccccc12 [Maprotiline hydrochloride]
normalised cell viability [1]: 1 ± 0.0087 | normalised cell viability [2]: 1.04 ± 0.029 | normalised cell viability [3]: 1.017 ± 0.0058 | normalised cell viability [4]: 1.06 ± 0.084 | normalised cell viability [5]: 0.99 ± 0.0066 | normalised cell viability [6]: 0.9997 ± 0.0091

O=C1Cc2c([nH]c3ccc(Br)cc23)-c2ccccc2N1 [Kenpaullone]
normalised cell viability [1]: 1.03 ± 0.011 | normalised cell viability [2]: 1.1 ± 0.025 | normalised cell viability [3]: 1.03 ± 0.01 | normalised cell viability [4]: 1.11 ± 0.1 | normalised cell viability [5]: 0.99 ± 0.0076 | normalised cell viability [6]: 1 ± 0.014

Nc1nc(Cl)nc2c1ncn2[C@@H]1O[C@H](COP(=O)(O)OP(=O)(O)OP(=O)(O)O)[C@H](O)C1O (stereo partly drawn) [2-Chloroadenosine triphosphate tetrasodium]
normalised cell viability [1]: 0.992 ± 0.0076 | normalised cell viability [2]: 0.818 ± 0.041 | normalised cell viability [3]: 0.988 ± 0.018 | normalised cell viability [4]: 0.917 ± 0.019 | normalised cell viability [5]: 0.987 ± 0.0044 | normalised cell viability [6]: 0.981 ± 0.0056
